Results reported in publication PMC4336329 (PLoS ONE, 2015).
Out of some 310,000 compounds screened, about 14,000 (4.5%) showed an effect of 50% or more. The effect is printed as a negative number. The list shows a part of the results.

What follows are compounds tested against human ether-à-go-go-related gene (hERG) potassium channel (human, UniProt Q12809) (assay: primary screen, population patch clamp on CHO cells stably expressing hERG).
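Also: peak tail current of the secondary pulse compared with the same well before compound.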

Sequence of human ether-à-go-go-related gene (hERG) potassium channel (Q12809 whole entry, looked up): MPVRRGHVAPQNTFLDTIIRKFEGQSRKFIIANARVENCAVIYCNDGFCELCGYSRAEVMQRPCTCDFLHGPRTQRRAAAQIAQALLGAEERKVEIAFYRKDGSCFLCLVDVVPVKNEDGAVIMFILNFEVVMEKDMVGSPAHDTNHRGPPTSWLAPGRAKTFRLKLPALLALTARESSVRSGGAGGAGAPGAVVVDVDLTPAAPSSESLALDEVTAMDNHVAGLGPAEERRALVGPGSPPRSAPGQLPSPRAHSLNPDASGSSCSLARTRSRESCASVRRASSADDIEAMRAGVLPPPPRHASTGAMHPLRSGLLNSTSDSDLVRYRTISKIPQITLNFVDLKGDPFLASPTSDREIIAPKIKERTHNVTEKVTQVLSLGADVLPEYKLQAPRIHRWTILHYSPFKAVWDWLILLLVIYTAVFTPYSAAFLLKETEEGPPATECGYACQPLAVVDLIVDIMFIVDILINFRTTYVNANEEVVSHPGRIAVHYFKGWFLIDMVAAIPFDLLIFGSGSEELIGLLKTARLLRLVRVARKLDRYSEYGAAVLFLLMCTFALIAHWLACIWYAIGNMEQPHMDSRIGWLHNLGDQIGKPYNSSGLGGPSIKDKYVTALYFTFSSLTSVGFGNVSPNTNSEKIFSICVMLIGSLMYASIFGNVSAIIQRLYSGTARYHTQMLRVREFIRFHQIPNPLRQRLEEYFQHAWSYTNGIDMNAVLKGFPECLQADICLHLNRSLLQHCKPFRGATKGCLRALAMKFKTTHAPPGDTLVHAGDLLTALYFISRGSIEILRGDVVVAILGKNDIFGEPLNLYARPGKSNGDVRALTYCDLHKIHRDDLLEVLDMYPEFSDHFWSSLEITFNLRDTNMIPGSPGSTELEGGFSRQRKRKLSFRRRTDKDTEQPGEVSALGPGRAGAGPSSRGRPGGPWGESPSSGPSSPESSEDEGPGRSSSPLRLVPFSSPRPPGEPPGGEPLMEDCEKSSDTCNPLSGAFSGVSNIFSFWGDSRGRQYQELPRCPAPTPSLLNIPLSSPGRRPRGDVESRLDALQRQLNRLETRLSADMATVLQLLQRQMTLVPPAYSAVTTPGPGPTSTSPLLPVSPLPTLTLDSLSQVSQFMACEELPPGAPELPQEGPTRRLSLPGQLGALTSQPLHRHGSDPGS

Structure (SMILES) | hERG current change (%, negative = inhibition) at 10uM
COc1ccc(/C=C/C(=O)c2ccoc2)cc1 | -0.919%
O=C1C=C(c2cc3ccccc3s2)C[C@@H](c2ccc(F)cc2)C1 | 5.01%
Cc1cc(C)nc(N2CCN(S(=O)(=O)c3ccc(F)cc3)CC2)n1 | 10.1%
COc1ccc(C2SCC(=O)Nc3c2c(=O)[nH]n3C2CCCCC2)cc1 (stereo not shown) | 5.34%
O=C(CSc1nnc2ccccn12)Nc1ccc2c(c1)OCO2 | 5.35%
COc1ccccc1NC(=O)Nc1ccnn1C1CCN(C(=O)c2cccnc2)CC1 | 4.81%
Cc1ccc(C(=O)Nc2ccc(Oc3cccc(C(F)(F)F)c3)nc2)cc1 | 10.1%
COc1ccc2c(c1)-c1nc(NC(=O)c3ccco3)sc1CC2 | 7.14%
O=C(OC(C(=O)NCc1cccs1)c1ccccn1)c1cccs1 (stereo not shown) | -11.5%
COC(=O)c1ccc(C(=O)OC)c(=O)[nH]1 | 4.11%
Cc1nnc(NC(=O)C(C)Sc2nnc(-c3ccco3)n2C)s1 (stereo not shown) | 19%
O=C(O)c1cccc2c1C(=O)N(C1CCCC1)C2 | 11.7%
COc1ccccc1NS(=O)(=O)c1cc(NC(=O)c2cc(=O)[nH]c3ccccc23)ccc1N1CCOCC1 | -34.7%
CC(C)CCN1CCN(Cc2ccc(C#CC(C)(C)O)s2)CC1CCO (stereo not shown) | -5.82%
COC(=O)C1CN(C(=O)C(C)Oc2cccc(C)c2C)c2ccccc2O1 (stereo not shown) | -8.63%
COc1cccc(NC(=O)CC2C(=O)NC3CCCCC3N2C(=O)c2ccc(F)cc2)c1 (stereo not shown) | 11.1%
Cc1oc(-c2cccs2)nc1CN1CCN(C(C)C)C(CCO)C1 (stereo not shown) | 4.95%
CC(=O)c1cc2c(cc1NC(=O)Cn1cnc3ccccc3c1=O)OCO2 | -6.93%
CCN(CC)CCCNc1oc(/C=C/c2ccccc2)nc1C#N | -71%
O=S1(=O)N=C(N2CCN(c3ccc(F)cc3)CC2)c2ccccc21 | -8.87%
CCC1=NN2C(=N)/C(=C\c3ccc(OCCOc4ccc(NC(C)=O)cc4)cc3)C(=O)N=C2S1 | 15.2%
COc1ccccc1NC(=O)C1CCCN(c2ncnc3c2nc2n3CCCCC2)C1 (stereo not shown) | -45.5%
CC(=O)c1cccc(Nc2ccc(-c3ccccc3F)nn2)c1 | -21.6%
Cc1n[nH]c(C)c1S(=O)(=O)N1CCCC(C(=O)NC2CCCc3ccccc32)C1 (stereo not shown) | -0.218%
O=C(c1ccccc1)n1ccc2ccccc21 | -28%
